In article PMC5892938:
The other results are listed elsewhere or left out. At the low end of the ranking the order means little.

target: GST-SBP-SLBP (stem-loop binding protein) (UniProt Q14493); test: targeted RNA Bind-n-Seq; conditions: RBNS binding buffer: 25 mM Tris pH 7.5, 150 mM KCl, 3 mM MgCl2, 0.1% Tween, 0.5 mg/mL BSA, 1 mM DTT; 27 nM protein, 750 pM RNA pool; temperature not stated; high values mean tight binding;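 also: DESeq read counts versus GST-SBP nonspecific binding control pulldown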

| Sequence | binding signal (log2 fold change) |
| --- | --- |
| GGUCACGUCUCAAUCAACUCAAUCCCCAGGGAAAACCCUGGUUUUUUCAACAGCUCGCAGUCAAG | -0.148 |
| GGUCACGUCUCAAUCAACUCAAUAGAGGGGGGGAAAACCCCUUUACCCUCCGUAUCAACAGCUCGCAGUCAAG | -0.281 |
| GGUCACGUCUCAAUCAACUCUUCUCCAGGAGUUUCCUCCUGCAUAUUCAACAGCUCGCAGUCAAG | 0.0457 |
| GGUCACGUCUCAAUCAACUCAAUUCCAGGAGUUUUCUCCUGUAUACUCAACAGCUCGCAGUCAAG | 0.0688 |
| GGUCACGUCUCAAUCAACUCUAUUCCCAGGGAAAACCCUGGCUAACUCAACAGCUCGCAGUCAAG | 0.0561 |
| GGUCACGUCUCAAUCAACUCAUUCUCCAGGGAAAUCCCUGGCUAUUUCAACAGCUCGCAGUCAAG | 0.0272 |
| GGUCACGUCUCAAUCAACUCAUCUUCAGGAGUUUACUCCUGCUUUCUCAACAGCUCGCAGUCAAG | 0.0445 |
| GGUCACGUCUCAAUCAACUCUUUUCCCAGGGAAAUCCCUGGUUUUUUCAACAGCUCGCAGUCAAG | -0.322 |
| GGUCACGUCUCAAUCAACUCCAUGGAGGGGGGGAAAACCCCUUUACCCUCAAUAUCAACAGCUCGCAGUCAAG | -0.0439 |
| GGUCACGUCUCAAUCAACUCACACGAGGGGGGGAAAACCCCUUUACCCUCACUUUCAACAGCUCGCAGUCAAG | -0.371 |
| GGUCACGUCUCAAUCAACUCAAUUUCAGGAGUUUGCUCCUGCUUUCUCAACAGCUCGCAGUCAAG | -0.0532 |
| GGUCACGUCUCAAUCAACUCAAUUUCCAGGGAAAACCCUGGCUAUCUCAACAGCUCGCAGUCAAG | -0.264 |
| GGUCACGUCUCAAUCAACUCCUUAGAGGGGGGGAAAACCCCUUUGCCCUCAAAUUCAACAGCUCGCAGUCAAG | -0.151 |
| GGUCACGUCUCAAUCAACUCUAUCUCCAGGGAAACCCCUGGCUAUCUCAACAGCUCGCAGUCAAG | 0.109 |
| GGUCACGUCUCAAUCAACUCACACGAGGGGGGGAAAACCCCUUUACCCUCUCUAUCAACAGCUCGCAGUCAAG | 0.553 |
| GGUCACGUCUCAAUCAACUCAAUCCCAGGAGUUUUCUCCUGCAAUUUCAACAGCUCGCAGUCAAG | 0.0379 |
| GGUCACGUCUCAAUCAACUCAACUUCAGGAGUUUUCUCCUGCAAAUUCAACAGCUCGCAGUCAAG | 0.0343 |
| GGUCACGUCUCAAUCAACUCUAUUUCCAGGGAAAGCCCUGGCUUACUCAACAGCUCGCAGUCAAG | 0.11 |
| GGUCACGUCUCAAUCAACUCUAUGUCCAGGGAAAACCCUGGUUUUCUCAACAGCUCGCAGUCAAG | -0.204 |
| GGUCACGUCUCAAUCAACUCUAUAGAGGGGGGGAAAACCCCUUUACCCUCCUAAUCAACAGCUCGCAGUCAAG | -0.0808 |
